Experimental data: PubChem BioAssay AID1768 (National Center for Advancing Translational Sciences (NCATS), 2009)
Hit rate of the full screen: of about 270,000 compounds, about 620 (0.23%) were called active. Inconclusive results, whose numbers are uncertain, are shown with a selection of clear calls. Calls come from the whole dose curve; as a rule, active = well fitted inhibition curve with a large enough effect in the polarisation, with a control signal flat (not every such curve was filed as active); inconclusive = small, poorly fitted or top-dose-only effect, or effect the other way, or a change in a side signal; inactive = no such curve, though single readings can be large or run the other way; the % refers to the polarisation. Potencies of inconclusive entries are doubtful fits and often do not repeat. A note “side channel” means that the fit belongs to a control or component signal, not to the main read-out.

Biological target: Menin (Homo sapiens) (UniProt O00255)
Sequence of UniProt O00255 (O00255 whole entry, looked up): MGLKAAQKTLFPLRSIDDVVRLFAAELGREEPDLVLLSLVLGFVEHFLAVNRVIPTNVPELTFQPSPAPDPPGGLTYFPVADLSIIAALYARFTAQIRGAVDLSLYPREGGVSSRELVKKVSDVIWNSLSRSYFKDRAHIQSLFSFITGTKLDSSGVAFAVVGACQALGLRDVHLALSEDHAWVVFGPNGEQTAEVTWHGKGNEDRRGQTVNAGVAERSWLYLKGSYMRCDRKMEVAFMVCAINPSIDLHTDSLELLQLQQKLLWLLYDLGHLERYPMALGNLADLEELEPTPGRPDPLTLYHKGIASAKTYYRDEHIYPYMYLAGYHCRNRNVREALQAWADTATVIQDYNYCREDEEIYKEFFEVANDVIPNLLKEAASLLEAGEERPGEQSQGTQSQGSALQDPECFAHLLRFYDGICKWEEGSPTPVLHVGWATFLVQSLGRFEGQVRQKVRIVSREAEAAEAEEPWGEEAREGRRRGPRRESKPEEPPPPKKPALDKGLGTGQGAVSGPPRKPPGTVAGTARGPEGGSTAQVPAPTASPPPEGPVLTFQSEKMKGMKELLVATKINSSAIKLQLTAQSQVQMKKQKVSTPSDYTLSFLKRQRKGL
Assay: qHTS Assay for Inhibitors Targeting the Menin-MLL Interaction in MLL Related Leukemias: Competition With Texas Red Labeled MLL-derived Mutant Peptide; for FP activity change, negative = inhibition: % of control where 0% means no effect
Settings: fluorescence polarization; FP activity change, negative = inhibition: at 61.6 µM (top of the series)
Potency is the fitted concentration of half-maximal effect; tags give direction and shape of the fitted curve or compound fluorescence and quenching.

Which Potency does the source give for `Cc1cc(OCC(=O)N(C)C2CCCCC2)cc(C)c1Cl` here?
The Potency was inconclusive: 28.2 µM [fluorescent, side channel, partial curve].

Which Potency does the source give for `CN1/C(=C\C(=O)Nc2ccc(Cl)cc2)C(C)(C)c2ccccc21` here?
The Potency was inconclusive: 11.2 µM [quencher, side channel, single point].

How did the Potency turn out when `CCS(=O)(=O)C1=NN2C(=N)/C(=C\c3ccc(OCCOc4cccc(OC)c4)c(OC)c3)C(=O)N=C2S1` was run?
The Potency was inconclusive: 2.51 µM [quencher, side channel, full curve].

`COc1ccc(C(=O)COC(=O)/C=C/c2ccc(S(=O)(=O)Nc3cccc(S(N)(=O)=O)c3)cc2)cc1` was tested. Which Potency did it give?
The Potency was inconclusive: 3.55 µM [quencher, side channel, full curve, poor fit].

Which “FP activity change, negative = inhibition” value does the source give for `Oc1ccccc1C=NCc1ccccc1` here?
Its value is inactive: -12.3%.

With `CC(O)c1cccc2cc(C(O)CNC(C)(C)C)oc12` (stereo unspecified) as the molecule, how does the “FP activity change, negative = inhibition” value read?
The value was inactive: 4.35%.

With `O=C(Nc1nnc(SCc2ccc(F)cc2)s1)c1ccc2ncsc2c1` as the molecule, how does the Potency read?
Its Potency is inconclusive: 11.2 µM [quencher, side channel, single point].

For `O=C(/C=C/c1cccc(Oc2ccccc2)c1)N1CCOCC1`, which Potency is on record?
Its Potency is inconclusive: 39.8 µM [fluorescent, side channel, single point].

With `CCOC(=O)CSc1c(-c2ccc(Cl)cc2)[nH]c2ccccc12` as the molecule, how does the Potency read?
The Potency was inconclusive: 10 µM [quencher, side channel, partial curve].

How did the Potency turn out when `CC1=CC(C)(C)N(C(=O)CSc2nnc(-c3ccc(C)cc3)o2)c2ccc(C)cc21` was run?
The Potency was inconclusive: 7.94 µM [fluorescent, side channel, full curve].

How did the Potency turn out when `CC(=O)c1cccc(NS(=O)(=O)c2ccc(N/C=C\C(=O)c3ccc(C)cc3)cc2)c1` was run?
Its Potency is inconclusive: 2.51 µM [quencher, side channel, full curve, poor fit].

With `COCCn1c(C)cc(C2=NNC(=NC3CC3)SC2)c1C` as the molecule, how does the “FP activity change, negative = inhibition” value read?
Its value is inactive: -22.8%.

Which “FP activity change, negative = inhibition” value does the source give for `COc1ccc2c(c1)O[C@@H](c1ccc3c(c1)OCO3)[C@H](OC(=O)N[C@H](C)C1CCCCC1)C2=O` here?
Its value is inactive: 2.52%.

How did the Potency turn out when `CCCCC(=O)Nc1ccc(C(=O)Nc2nnc(COC)s2)cc1` was run?
Its Potency is inconclusive: 25.1 µM [quencher, side channel, single point].

Which Potency does the source give for `COc1ccc(NC(=O)C2C3C=CC(O3)C2C(=O)O)cc1` (stereo unspecified) here?
The Potency was inconclusive: 5.01 µM [quencher, side channel, full curve, poor fit].

For `Fc1ccc(CSc2ccc(-c3ccc4c(c3)OCO4)nn2)cc1`, which Potency is on record?
The Potency was inconclusive: 39.8 µM [inhibitor, single point].
